Some of the results follow.
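Note: jurkat cells carrying a lentiviral library of mutant zinc finger degrons fused to EGFP plus mCherry, mCherry+ cells FACS sorted, degron abundance counted by next-generation sequencing.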

For this assay, the target named is no compound (DMSO). As to the kind of experiment: log2 fold change of degron read counts, EGFP-low vs EGFP+ sorted cells; higher = lower degron-EGFP level without compound (poor expression or instability). Particulars: compound: DMSO control; 18 h.
Take LGCNQCGFWCTQKGNLLRHIKL: the “log2 fold change of degron read counts” value is 2.42.

As for FKCNQCGALFTQKGNLLRHIKL, the “log2 fold change of degron read counts” value was -1.34.

For the sequence FVCPQCGAAFTQKGNLLRHIKL, the “log2 fold change of degron read counts” value is -0.305.

FNCDICGADFTQKGNLLRHIKL: the “log2 fold change of degron read counts” value was -1.6.

In the case of FNCDICGATFTQKGNLLRHIKL, the “log2 fold change of degron read counts” value is -1.33.

In the case of FNCEVCGAEFTQKGNLLRHIKL, the “log2 fold change of degron read counts” value was -2.83.

For FECPVCGAVFTQKGNLLRHIKL, the “log2 fold change of degron read counts” value is 0.0657.

On to FICEVCGATFTQKGNLLRHIKL, for which the “log2 fold change of degron read counts” value was -1.93.

Regarding FLCNVCGAPFTQKGNLLRHIKL, the “log2 fold change of degron read counts” value worked out at 0.217.

For the sequence FDCEICGHTFTQKGNLLRHIKL, the “log2 fold change of degron read counts” value was -1.23.

Take LECNQCGFMCTQKGNLLRHIKL: the “log2 fold change of degron read counts” value was -0.429.

Take FVCNICGAYFTQKGNLLRHIKL: the “log2 fold change of degron read counts” value is -0.147.

Consider FNCEQCGAGFTQKGNLLRHIKL, for which the “log2 fold change of degron read counts” value was -1.6.

Regarding FSCPQCGAPFTQKGNLLRHIKL, the “log2 fold change of degron read counts” value is -0.92.

As to FVCPICGAAFTQKGNLLRHIKL, the “log2 fold change of degron read counts” value was -0.242.

For FWCNICGAWFTQKGNLLRHIKL, the “log2 fold change of degron read counts” value came out at 1.48.

For the sequence FFCPICGACFTQKGNLLRHIKL, the “log2 fold change of degron read counts” value worked out at 0.441.

For LACNQCGFLCTQKGNLLRHIKL, the “log2 fold change of degron read counts” value was found to be 1.26.

On to FWCDVCGAMFTQKGNLLRHIKL, for which the “log2 fold change of degron read counts” value was -0.575.

In the case of LYCEICGFSCTQKGNLLRHIKL, the “log2 fold change of degron read counts” value amounted to 0.195.

Regarding FDCSVCGHLFTQKGNLLRHIKL, the “log2 fold change of degron read counts” value turned out to be 1.09.

On to FVCEQCGALFTQKGNLLRHIKL, for which the “log2 fold change of degron read counts” value is -1.36.

On to FCCEVCGADFTQKGNLLRHIKL, for which the “log2 fold change of degron read counts” value was -1.36.

For FYCNQCGRNFTQKGNLLRHIKL, the “log2 fold change of degron read counts” value was 0.0789.

With FHCNQCGAMFTQKGNLLRHIKL, the “log2 fold change of degron read counts” value was -0.369.

For FNCEICGAEFTQKGNLLRHIKL, the “log2 fold change of degron read counts” value was -2.48.

With FKCNICGAIFTQKGNLLRHIKL, the “log2 fold change of degron read counts” value was -0.189.

In the case of FFCNQCGRYFTQKGNLLRHIKL, the “log2 fold change of degron read counts” value worked out at 0.873.

In the case of FECPICGAQFTQKGNLLRHIKL, the “log2 fold change of degron read counts” value is -0.715.

Regarding LKCNQCGFHCTQKGNLLRHIKL, the “log2 fold change of degron read counts” value is 1.19.

On to FRCNQCGASFTQKGNLLRHIKL, for which the “log2 fold change of degron read counts” value was -0.417.

Consider FDCDVCGAFFTQKGNLLRHIKL, for which the “log2 fold change of degron read counts” value stood at 0.219.

For the sequence LYCEICGFACTQKGNLLRHIKL, the “log2 fold change of degron read counts” value was -0.015.

As for FACEICGRAFTQKGNLLRHIKL, the “log2 fold change of degron read counts” value was -1.58.

As for LGCEICGFPCTQKGNLLRHIKL, the “log2 fold change of degron read counts” value is 0.12.

Regarding LRCPICGFHCTQKGNLLRHIKL, the “log2 fold change of degron read counts” value amounted to 0.464.

FVCEICGRNFTQKGNLLRHIKL: the “log2 fold change of degron read counts” value was -1.69.

Take FSCNQCGRDFTQKGNLLRHIKL: the “log2 fold change of degron read counts” value was -0.561.

Take FECDVCGAPFTQKGNLLRHIKL: the “log2 fold change of degron read counts” value was -0.943.

For the sequence LCCNQCGFICTQKGNLLRHIKL, the “log2 fold change of degron read counts” value turned out to be 1.31.

As to FWCEICGRHFTQKGNLLRHIKL, the “log2 fold change of degron read counts” value was -0.0405.

Regarding FLCNQCGRIFTQKGNLLRHIKL, the “log2 fold change of degron read counts” value amounted to 0.749.

In the case of FNCNQCGRGFTQKGNLLRHIKL, the “log2 fold change of degron read counts” value is -0.768.

FQCDVCGAGFTQKGNLLRHIKL: the “log2 fold change of degron read counts” value was -1.29.

With FTCPVCGAKFTQKGNLLRHIKL, the “log2 fold change of degron read counts” value is -0.453.

On to FLCDQCGAGFTQKGNLLRHIKL, for which the “log2 fold change of degron read counts” value was -1.76.

On to FECSVCGHCFTQKGNLLRHIKL, for which the “log2 fold change of degron read counts” value was -1.17.

Regarding FRCPQCGATFTQKGNLLRHIKL, the “log2 fold change of degron read counts” value is -0.358.

For FDCNQCGHGFTQKGNLLRHIKL, the “log2 fold change of degron read counts” value was 0.465.

For FACEICGRKFTQKGNLLRHIKL, the “log2 fold change of degron read counts” value was -1.6.

(Values after the supplement of paper PMC12645437, “Orthogonal IMiD-Degron Pairs Induce Selective Protein Degradation in Cells” (ACS Chemical Biology, 2025).)
